± gives the standard deviation. The entries are a selection whose mix differs from that of the whole data set.
Tested on: MIWI (PIWIL1) piRISC loaded with L1MC piRNA (30 nt)
Test: pre-steady-state target cleavage rate (min^-1); MIWI and MILI are mouse PIWI proteins and EfPiwi is from a freshwater sponge; tags in brackets are library labels; higher = faster piRNA-guided slicing of the target
Conditions: guide: L1MC piRNA 5'p-UAACUAAAUACUAUGCAAGCUGUAGGUCCU; auxiliary factor: 500 nM mouse GTSF1
Method in brief: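 Cleave-'n-Seq reactions paired 0.1 nM transcribed, DNA-blocked target RNA library with 1 nM active affinity-purified piRISC holding one synthetic guide, plus or minus 500 nM GTSF1 partner protein, in HEPES–potassium acetate buffer at 33 °C for 0–8 or 0–960 min. After sequencing of uncleaved targets and normalisation to depth and weakly complementary targets, the pre-steady-state cleavage rate was taken from a burst-and-steady-state fit. Three trials were pooled, and k3 was capped at 0.0001 min^-1.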

Point of comparison: UCCUGGAUGUCGUUGCAUAGUAUUUAAGUUA, “pre-steady-state target cleavage rate” value 0.0172 ± 0.0049. Against it:
- UCCUGGAUCUCCUUGCAUAGUAUUUAGAAA — higher, 0.188 ± 0.044
- UCCUGGAACACCUUGCAUAGUAUUUACAAA — higher, 0.147 ± 0.047
- UCCUGGAUGUCCUACCAUAGUAUUUAGUUA — higher, 0.0405 ± 0.013
- UCCACCUACAGCUUGCAUAGUAUUAUGUAA — higher, 0.117 ± 0.041
- UCCUGGAUGUGCUAGCUUAGUAUUUAGUUA — lower, 0.00713 ± 0.0026
- UCCUGCUACAGCUUGCAUAGUAAAAAGUAA — higher, 0.0998 ± 0.021
- UCCUGCUACAGCUUGCAUAGUAUAAAGAAA — higher, 0.23 ± 0.044
- UCGACCUACAGCUUGCAUAGUAAUUAGAAA — higher, 0.355 ± 0.046
- UCCUGGAUGUCGAACGUAUCUAUGUUAGUUA — lower, < 0.0001
- UCCUGGUACAGCUUGCAUAGUAAUUACAAA — higher, 0.0727 ± 0.021
- UCCUCCUACAGCUUGACAUAGUAUUUAGUUA — higher, 0.651 ± 0.053
- UCCUGGAUGAGCUUCCAUAGUAUUUAGUAA — within error, 0.017 ± 0.0076
- UCCUCCUACAGGAAGCAUAGUAUUUACAAA — higher, 0.103 ± 0.02
- UCCUCCAUGAGCUUGCAUAGUAUUUUCAAA — higher, 0.112 ± 0.025
- UCCUGGAUGUGCUUGCAUUCUAUUUAGUUA — lower, 0.00483 ± 0.0041
- UCCACCUACAGCUUGACAUAGUAUUUAGUUA — higher, 0.539 ± 0.048
- UCCUGGAUGACCUUGCAUAGUAUUUAGAAA — within error, 0.0101 ± 0.0061
- UCCUGGAUGUCCUUCGCAUAGUAUUUAGUUA — within error, 0.0131 ± 0.0043
- UCGUGGUACAGCUUGCAUAGUAUUUUCAAA — higher, 0.283 ± 0.043
- UCCUGCUACAGCUUCGAUAGUAUUUAGUAA — higher, 0.291 ± 0.035
- UCCUCCAACAGCUUGCAUAGUAUUUUCAAA — higher, 0.28 ± 0.035
- UCCUCCUACAGCUUGCAUUCUAUUUAGAAA — higher, 0.044 ± 0.015
- UCCUGCUACAGCUUGCAUAGUUUUAGUUA — lower, 0.00729 ± 0.0045
- UCCUGGAUGUCCUAGCAUAGUAAUUAGUUA — lower, 0.00528 ± 0.0045
- UGGACCUACAGCUUGCAUAAGUAUUUAGUUA — lower, 0.00443 ± 0.0043
- UCCUGGAUGUCGAACGUUGGUAUUUAGUUA — lower, < 0.0001
- UCCUCCUACAGCUUGCAUUGUAUUUACAAA — higher, 0.132 ± 0.026
- UGGACCUACAGCUUCGAUAGUAUUUAGAAA — higher, 0.0441 ± 0.0077
- UCCACCUACAGCUUGCUAUGUAUUUAGAAA — within error, 0.00878 ± 0.0045
- UCCUGCUACAGCUAGCAUAGUAUUUACAAA — higher, 0.234 ± 0.049
- UCCUCCUACAGCUUGCAUACAAUUUAGUAA — within error, 0.0263 ± 0.012
- UCCACCUACAGCUUGCUAAGUAUUUACAAA — within error, 0.00889 ± 0.0047
- UCCUGGUACAGCUUGCUAAGUAUUUAGAAA — within error, 0.0221 ± 0.0088
- UCCUGGAUGUGCUUGCAUAGUAUAUAGAUA — lower, 0.00749 ± 0.0037
- UCCUGGAACAGCUUGCAUACAAUUUAGUUA — within error, 0.0117 ± 0.0047
- UCCUGGAAGAGCUUGCAUAGUAUUUUCAAA — higher, 0.0646 ± 0.018
- AGGACCUACACGUUGCAUAGUAUUUUCAAA — higher, 0.209 ± 0.025

Source: the supplement of paper PMC10338343
